Reference: PubChem BioAssay AID540317 (National Center for Advancing Translational Sciences (NCATS), 2011)
Hit rate of the full screen: of about 390,000 compounds, about 2,200 (0.56%) were called active. Inconclusive results, whose numbers are uncertain, are shown with a selection of clear calls. The call rests on the fitted dose curve; in most records, active means well fitted inhibition curve with a large enough effect; inconclusive means small, poorly fitted or top-dose-only effect; inactive means no such curve, though single readings can be large or run the other way. Potencies of inconclusive entries are doubtful fits and often do not repeat.

What follows are compounds tested against Chromobox protein homolog 1 (Homo sapiens) (UniProt P83916) (assay: HTS for Inhibitors of HP1-beta Chromodomain Interactions with Methylated Histone Tails). Details: AlphaScreen HP1-beta / biotin-H3K9me3 peptide binding; series mostly up to 114 µM.
Procedure, shortened: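 HP1-beta protein (50 nM final) preincubated 30 min at room temperature with biotinylated H3(1-18)K9me3 peptide (50 nM) in PBS pH 7.4, 0.01% Tween-20, then compound added for 30 min. AlphaScreen streptavidin donor/nickel chelate acceptor beads (10 ug/mL final), 30 min dark, luminescence read.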
Further: nearly all actives have a fitted effect of over 70% in size.
Potency means the concentration at half of the fitted maximal effect; tags describe the fitted curve by direction and shape.

UniProt P83916, sequence (P83916 whole entry, looked up): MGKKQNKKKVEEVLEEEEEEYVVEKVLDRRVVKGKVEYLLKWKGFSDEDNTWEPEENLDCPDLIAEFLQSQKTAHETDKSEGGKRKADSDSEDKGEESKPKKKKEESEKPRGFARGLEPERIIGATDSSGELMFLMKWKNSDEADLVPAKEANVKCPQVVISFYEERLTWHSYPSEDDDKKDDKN

SMILES	Potency
Cc1cccc(N2C(=O)NC(=O)/C(=C\c3ccc(N4CCOCC4)cc3)C2=O)c1	inconclusive: 35.5 µM [inhibitor, single point]
N#CC(C#N)=NNc1ccc(S(=O)(=O)N2CCCC2)cc1	inconclusive: 50.1 µM [inhibitor, partial curve, poor fit]
COc1cc(C=C2C(=O)NC(=O)NC2=O)ccc1OS(=O)(=O)c1ccccc1[N+](=O)[O-]	inconclusive: 35.5 µM [inhibitor, partial curve]
COc1ccc(CNCCc2ccc3c(c2)OCO3)c(OC)c1OC	inconclusive: 70.8 µM [inhibitor, partial curve]
CCOP(=O)(Nc1ccc2c(c1)C(=NNC(N)=S)c1ccccc1-2)OCC	inconclusive: 50.1 µM [inhibitor, partial curve]
COc1ccc(NC(c2ccccc2F)P(=O)(Oc2ccccc2)Oc2ccccc2)cc1 (stereo not given)	inconclusive: 17.8 µM [inhibitor, partial curve, poor fit]
CCCCCc1nc2c(c(=O)c3ccccc3n2C)c(=O)n1C1CCCCCC1	inactive
CCOc1cc(C=C2C(=O)NC(=O)NC2=O)ccc1OCC(=O)N1CCOCC1	inactive
CC(C)(C)NC(=O)N1c2ccccc2Sc2ccccc21	inactive
COCCCOc1ccnc(CS(=O)c2nc3ccccc3[nH]2)c1C (stereo not given)	active: 22.4 µM
CCOc1ccccc1N1C(=O)CC(=O)NC1=O	inactive
CCC(C)N1CCN(C(=O)COc2ccc3ccccc3c2)CC1 (stereo not given)	active: 50.1 µM
CCN(c1ccc(C(O)(C(=O)OC)C(F)(F)F)cc1)S(=O)(=O)c1ccccc1 (stereo not given)	inactive
c1ccc2c(c1)Nc1ccccc1S2	inconclusive: 25.1 µM [inhibitor, partial curve]
COc1cc(OC)cc(C(=O)N2CCC(N3CCN(c4ccccc4)CC3)CC2)c1	inconclusive: 25.1 µM [inhibitor, partial curve, poor fit]
COc1ccc(CCNCc2ccncc2)cc1OC	inconclusive: 56.2 µM [inhibitor, partial curve]
O=c1c2ccccc2[se]n1-c1ccccc1	inconclusive: 2.51 µM [inhibitor, full curve, poor fit]
O=C(CNC1CCCCC1)N1CCC2(CC1)OCCO2	inconclusive: 7.94 µM [inhibitor, full curve]
Clc1ccc(OCCCN2CCCC2)cc1Cl	inconclusive: 56.2 µM [inhibitor, single point]
Cc1cccc(OCC(=O)N2CCN(Cc3ccc([N+](=O)[O-])cc3)CC2)c1	inconclusive: 17.8 µM [inhibitor, full curve]
Cc1ccnc(-n2c(C)cc(C=C3C(=O)N(C)C(=S)N(C)C3=O)c2C)c1	inconclusive: 44.7 µM [inhibitor, partial curve, poor fit]
Clc1ccc(OCC#CCN2CCOCC2)cc1	inconclusive: 17.8 µM [inhibitor, full curve]
COc1ccccc1N=c1scc(-c2ccc(S(=O)(=O)N3CCCC3)cc2)n1C	inconclusive: 12.6 µM [inhibitor, partial curve, poor fit]
CN1C(=O)N(C)C(=O)C2(Cc3c(nc4ccccn4c3=O)N3CCc4ccccc4C32)C1=O (stereo not given)	inconclusive: 39.8 µM [inhibitor, single point]

SMILES	Potency
CN(C)CC1CCCCC1OC(=O)Cc1ccc(Cl)c([N+](=O)[O-])c1 (stereo not given)	inconclusive: 89.1 µM [inhibitor, single point]
O=Nc1c(O)c2ccccc2c2ccccc12	inconclusive: 31.6 µM [inhibitor, partial curve]
Cc1sc2c(c1C)C(c1ccc(C(C)(C)C)cc1)=NCC(=O)N2CC(=O)Nc1nccs1	inconclusive: 31.6 µM [inhibitor, single point]
Cc1cc(/C=C2/C(=O)NC(=O)N(Cc3ccco3)C2=O)c(C)n1-c1ccccc1O	inactive
COc1cc(OC)cc(C(=O)NC(=S)N2C[C@H]3C[C@H](C2)c2cccc(=O)n2C3)c1	inactive
CN1C(=O)CN=C(c2ccc(Cl)cc2)c2cc(Cl)ccc21	inactive
CS(=O)(=O)N1CCN(C(=N)N[N+](=O)[O-])CC1	inconclusive: 12.6 µM [inhibitor, full curve]
CCN(CC)P(c1n(C)cc[n+]1C)N(CC)CC	inconclusive: 70.8 µM [inhibitor, partial curve]
Clc1ccccc1CN1CCN(c2ccccc2Cl)CC1	inconclusive: 79.4 µM [inhibitor, partial curve]
Nc1ccc(Br)cc1C(=O)c1ccccc1	inactive
CCCCCC1CC(CC#CCN2CCOCC2)C(=O)O1 (stereo not given)	inconclusive: 70.8 µM [inhibitor, single point]
Cc1cc2ccccc2n1CCNC(=O)COc1ccccc1	inconclusive: 25.1 µM [inhibitor, full curve]
O=C(NC1CCCCCC1)c1ccc[nH]c1=S	inconclusive: 56.2 µM [inhibitor, single point]
CN(CCc1ccccn1)Cc1ccc(Cl)cc1	inconclusive: 56.2 µM [inhibitor, partial curve]
CCOc1cc2c(cc1OCC)-n1cccc1C(c1ccccc1F)NC2 (stereo not given)	inconclusive: 50.1 µM [inhibitor, partial curve]
c1cncc(C2Nc3cccc4cccc(c34)N2)c1	inconclusive: 50.1 µM [inhibitor, partial curve]
CCC(=O)Nc1ccc(N2CCN(CC)CC2)c(Cl)c1	inactive
CC1(C)C(=O)CC[C@@]2(C)C1=CCC1C2CC[C@]2(C)C(=O)CCC12 (stereo not given in full)	inactive
COc1ccc(CNCC(=O)N2CCC3(CC2)OCCO3)cc1	inconclusive: 79.4 µM [inhibitor, partial curve, poor fit]
CCN(CC)c1ccc(C=C2C(=O)NC(=S)NC2=O)cc1	inconclusive: 20 µM [inhibitor, full curve]
CN1CCc2cc(O)cc3c2[C@H]1Cc1ccc(O)c(O)c1-3	inconclusive: 3.55 µM [inhibitor, full curve, poor fit]
COc1ccc2c(c1)NP(=S)(c1ccccc1)N2 (stereo not given)	inconclusive: 14.1 µM [inhibitor, partial curve]
C[N+]1(CC2COC(c3ccco3)O2)CCCCC1 (stereo not given)	inconclusive: 89.1 µM [inhibitor, single point]
CC(C)COc1ccc(Cc2c(O)[nH]c(=S)[nH]c2=O)cc1	inconclusive: 70.8 µM [inhibitor, partial curve]

SMILES	Potency
CCOC(=O)C(O)(c1ccc(NC(=O)Oc2ccccc2)cc1)C(F)(F)F (stereo not given)	inactive
COc1ccc(OCc2nnc(SCC(=O)NCC3CCCO3)n2N)cc1 (stereo not given)	inconclusive: 39.8 µM [inhibitor, partial curve]
Cc1cc(/C=C2\C(=O)NC(=O)N(Cc3ccccc3Cl)C2=O)c(C)n1-c1ccc(C(=O)O)cc1	active: 70.8 µM
COC(=O)C1=Nc2ccccc2/C1=C\c1c(O)n(-c2cc(OC)ccc2OC)c(=O)[nH]c1=O	inconclusive: 31.6 µM [inhibitor, single point]
CCCCCSc1cc(OC)c(CCN(C)C)cc1OC	inconclusive: 44.7 µM [inhibitor, partial curve, poor fit]
COc1cc(/C=N/Nc2ccc(S(N)(=O)=O)cc2)cc(OC)c1OC	inconclusive: 89.1 µM [inhibitor, single point]
O=[N+]([O-])c1ccc(N2CCCC(C(F)(F)F)C2)c2ccncc12 (stereo not given)	inconclusive: 44.7 µM [inhibitor, partial curve]
Cc1cc(/C=C2\C(=O)NC(=O)N(Cc3ccccc3)C2=O)c(C)n1-c1ccc(Cl)c(C(=O)O)c1	inactive
O=P1(c2ccccc2)Nc2ccccc2N1c1ccccc1 (stereo not given)	inconclusive: 56.2 µM [inhibitor, partial curve, poor fit]
CCCCN1CC(O)=C(c2nc3ccccc3s2)C1=N	inconclusive: 3.98 µM [inhibitor, full curve]
Cn1cccc1/C=C1\C(=O)NC(=O)N(Cc2ccco2)C1=O	active: 44.7 µM
Cc1sc2ccccc2c1CC1=NCCN1	inconclusive: 11.2 µM [inhibitor, full curve, poor fit]
O=C(CF)NC(Nc1cccc2cccnc12)C(Cl)(Cl)Cl (stereo not given)	inactive
C[N+](C)(C)CCOC(=O)CBr	inactive
OC(COCc1ccc(Cl)cc1)CN1CC=C(c2ccccc2)CC1 (stereo not given)	inconclusive: 15.8 µM [inhibitor, full curve, poor fit]
Cc1cccc(N2C(=O)/C(=C/c3ccc(CN(CCC#N)S(C)(=O)=O)o3)C(=O)NC2=S)c1	inconclusive: 56.2 µM [inhibitor, partial curve, poor fit]
O=S(=O)(Nc1c(O)ccc2ccccc12)c1ccc(F)cc1	inconclusive: 50.1 µM [inhibitor, partial curve, poor fit]
COc1ccc(CN2CCN(C(=O)Cc3ccccc3)CC2)c(OC)c1	inconclusive: 15.8 µM [inhibitor, full curve, poor fit]
COc1ccc(OC)c(CN2CCN(C(=O)Cc3ccccc3)CC2)c1	inconclusive: 31.6 µM [inhibitor, partial curve, poor fit]
Cc1cc2c(cc1C)NP(=S)(c1ccccc1)N2	inconclusive: 20 µM [inhibitor, partial curve]
CCc1ccc(CN2CCN(Cc3cc(Br)ccc3O)CC2)cc1	active: 25.1 µM
c1ccc(-c2[nH]c(-c3ccccc3)[n+](CC3CO3)c2-c2ccccc2)cc1 (stereo not given)	inconclusive: 31.6 µM [inhibitor, single point]
